Our source for the Kd values is patent publication US20200385445A1 (published 2020).

The assay has as its target CPA.7.048. Kind of assay: SPR.

B1: human PVRIG-Fc (Fc fusion)
chain: TPEVWVQVRMEATELSSFTIRCGFLGSGSISLVTVSWGGPNGAGGTTLAVLHPERGIRQWAPARQARWETQSSISLILEGSGASSPCANTTFCCKFASFPEGSWEACGSLPPSSDPGLSAPPTPAPILRAD[omitted - human IgG1 Fc with changes]
For the molecule B1, binding was put at a Kd of 19 nM.
